Test results taken from the supplement of paper PMC8728848.
The list shows a part of the results.

Assays:
Assay in all cases: glycan array binding signal (z-score within array); higher = stronger binding
Conditions in all cases: glycan notation: IUPAC condensed, linker removed
[1] = target: Neu5Ac(a2-3)Gal(b1-4)GlcNAc(b1-6)[Gal(b1-3)]GalNAc
In short: (§1)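 The binding signal is a Z-score computed within each array. Data were drawn from 3228 arrays in the Consortium for Functional Glycomics database, restricted to those with a known protein sequence. Scores were averaged over arrays of the same protein sequence at different concentrations or buffers, and over linkers, and negative values can be taken as non-binding.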

[2] = target: Neu5Ac(a2-3)Gal(b1-4)GlcNAc(b1-6)[Neu5Ac(a2-3)Gal(b1-3)]GalNAc
In short: as §1

[3] = target: Neu5Ac(a2-3)Gal(b1-4)GlcNAc6S
In short: as §1

[4] = target: Neu5Ac(a2-3)Gal(b1-4)[Fuc(a1-3)]GlcNAc
In short: as §1

[5] = target: Neu5Ac(a2-3)Gal(b1-4)[Fuc(a1-3)]GlcNAc(b1-2)Man
In short: as §1

[6] = target: Neu5Ac(a2-3)Gal(b1-4)[Fuc(a1-3)]GlcNAc(b1-3)Gal
In short: as §1

[7] = target: Neu5Ac(a2-3)Gal(b1-4)[Fuc(a1-3)]GlcNAc(b1-3)Gal(b1-4)GlcNAc
In short: as §1

[8] = target: Neu5Ac(a2-3)Gal(b1-4)[Fuc(a1-3)]GlcNAc(b1-3)Gal(b1-4)[Fuc(a1-3)]GlcNAc(b1-3)Gal(b1-4)[Fuc(a1-3)]GlcNAc
In short: as §1

[9] = target: Neu5Ac(a2-3)Gal(b1-4)[Fuc(a1-3)]GlcNAc(b1-3)GalNAc
In short: as §1

[10] = target: Neu5Ac(a2-3)Gal(b1-4)[Fuc(a1-3)]GlcNAc(b1-6)[Gal(b1-3)]GalNAc
In short: as §1

[11] = target: Neu5Ac(a2-3)Gal(b1-4)[Fuc(a1-3)]GlcNAc(b1-6)[Neu5Ac(a2-3)Gal(b1-3)]GalNAc
In short: as §1

[12] = target: Neu5Ac(a2-3)Gal(b1-4)[Fuc(a1-3)]GlcNAc6S
In short: as §1

[13] = target: Neu5Ac(a2-3)Gal6S(b1-4)GlcNAc
In short: as §1

[14] = target: Neu5Ac(a2-3)Gal6S(b1-4)[Fuc(a1-3)]GlcNAc
In short: as §1

Neu5Ac(a2-3)GalNAc = target: Neu5Ac(a2-3)GalNAc
In short: as §1

[15] = target: Neu5Ac(a2-3)GalNAc(b1-4)GlcNAc
In short: as §1

[16] = target: Neu5Ac(a2-3)[GalNAc(b1-4)]Gal(b1-4)Glc
In short: as §1

[17] = target: Neu5Ac(a2-3)[GalNAc(b1-4)]Gal(b1-4)GlcNAc
In short: as §1

[18] = target: Neu5Ac(a2-3)[GalNAc(b1-4)]Gal(b1-4)GlcNAc(b1-3)GalNAc
In short: as §1

[19] = target: Neu5Ac(a2-3)[Neu5Ac(a2-6)]GalNAc
In short: as §1

Neu5Ac(a2-6)Gal = target: Neu5Ac(a2-6)Gal
In short: as §1

[20] = target: Neu5Ac(a2-6)Gal(b1-3)GlcNAc(b1-3)[Gal(b1-4)GlcNAc(b1-6)]Gal(b1-4)Glc
In short: as §1

Neu5Ac(a2-6)Gal(b1-4)Glc = target: Neu5Ac(a2-6)Gal(b1-4)Glc
In short: as §1

[21] = target: Neu5Ac(a2-6)Gal(b1-4)GlcNAc
In short: as §1

[22] = target: Neu5Ac(a2-6)Gal(b1-4)GlcNAc(b1-2)Man
In short: as §1

[23] = target: Neu5Ac(a2-6)Gal(b1-4)GlcNAc(b1-2)Man(a1-3)Man(b1-4)GlcNAc(b1-4)GlcNAc
In short: as §1

[24] = target: Neu5Ac(a2-6)Gal(b1-4)GlcNAc(b1-2)Man(a1-3)[Gal(b1-4)GlcNAc(b1-2)Man(a1-6)]Man(b1-4)GlcNAc(b1-4)GlcNAc
In short: as §1

[25] = target: Neu5Ac(a2-6)Gal(b1-4)GlcNAc(b1-2)Man(a1-3)[GlcNAc(b1-2)Man(a1-6)]Man(b1-4)GlcNAc(b1-4)GlcNAc
In short: as §1

[26] = target: Neu5Ac(a2-6)Gal(b1-4)GlcNAc(b1-2)Man(a1-3)[GlcNAc(b1-4)][Neu5Ac(a2-6)Gal(b1-4)GlcNAc(b1-2)Man(a1-6)]Man(b1-4)GlcNAc(b1-4)GlcNAc
In short: as §1

[27] = target: Neu5Ac(a2-6)Gal(b1-4)GlcNAc(b1-2)Man(a1-3)[Man(a1-6)]Man(b1-4)GlcNAc(b1-4)GlcNAc
In short: as §1

[28] = target: Neu5Ac(a2-6)Gal(b1-4)GlcNAc(b1-2)Man(a1-3)[Neu5Ac(a2-3)Gal(b1-4)GlcNAc(b1-2)Man(a1-6)]Man(b1-4)GlcNAc(b1-4)GlcNAc
In short: as §1

[29] = target: Neu5Ac(a2-6)Gal(b1-4)GlcNAc(b1-2)Man(a1-3)[Neu5Ac(a2-6)Gal(b1-4)GlcNAc(b1-2)Man(a1-6)]Man(b1-4)GlcNAc(b1-4)GlcNAc
In short: as §1

[30] = target: Neu5Ac(a2-6)Gal(b1-4)GlcNAc(b1-2)Man(a1-3)[Neu5Ac(a2-6)Gal(b1-4)GlcNAc(b1-2)Man(a1-6)]Man(b1-4)GlcNAc(b1-4)[Fuc(a1-6)]GlcNAc
In short: as §1

[31] = target: Neu5Ac(a2-6)Gal(b1-4)GlcNAc(b1-2)Man(a1-6)Man(b1-4)GlcNAc(b1-4)GlcNAc
In short: as §1

[32] = target: Neu5Ac(a2-6)Gal(b1-4)GlcNAc(b1-2)Man(a1-6)[Gal(b1-4)GlcNAc(b1-2)Man(a1-3)]Man(b1-4)GlcNAc(b1-4)GlcNAc
In short: as §1

[33] = target: Neu5Ac(a2-6)Gal(b1-4)GlcNAc(b1-2)Man(a1-6)[GlcNAc(b1-2)Man(a1-3)]Man(b1-4)GlcNAc(b1-4)GlcNAc
In short: as §1

[34] = target: Neu5Ac(a2-6)Gal(b1-4)GlcNAc(b1-2)Man(a1-6)[Man(a1-3)]Man(b1-4)GlcNAc(b1-4)GlcNAc
In short: as §1

[35] = target: Neu5Ac(a2-6)Gal(b1-4)GlcNAc(b1-2)[Neu5Ac(a2-6)Gal(b1-4)GlcNAc(b1-4)]Man(a1-3)[GlcNAc(b1-4)][Neu5Ac(a2-6)Gal(b1-4)GlcNAc(b1-2)[Neu5Ac(a2-6)Gal(b1-4)GlcNAc(b1-6)]Man(a1-6)]Man(b1-4)GlcNAc(b1-4)GlcNAc
In short: as §1

[36] = target: Neu5Ac(a2-6)Gal(b1-4)GlcNAc(b1-2)[Neu5Ac(a2-6)Gal(b1-4)GlcNAc(b1-4)]Man(a1-3)[GlcNAc(b1-4)][Neu5Ac(a2-6)Gal(b1-4)GlcNAc(b1-4)Man(a1-6)]Man(b1-4)GlcNAc(b1-4)GlcNAc
In short: as §1

[37] = target: Neu5Ac(a2-6)Gal(b1-4)GlcNAc(b1-2)[Neu5Ac(a2-6)Gal(b1-4)GlcNAc(b1-6)]Man(a1-6)[Neu5Ac(a2-6)Gal(b1-4)GlcNAc(b1-2)Man(a1-3)][GlcNAc(b1-4)]Man(b1-4)GlcNAc(b1-4)GlcNAc
In short: as §1

[38] = target: Neu5Ac(a2-6)Gal(b1-4)GlcNAc(b1-3)Gal(b1-3)GlcNAc
In short: as §1

[39] = target: Neu5Ac(a2-6)Gal(b1-4)GlcNAc(b1-3)Gal(b1-4)GlcNAc
In short: as §1

[40] = target: Neu5Ac(a2-6)Gal(b1-4)GlcNAc(b1-3)Gal(b1-4)GlcNAc(b1-2)Man(a1-3)[Neu5Ac(a2-6)Gal(b1-4)GlcNAc(b1-3)Gal(b1-4)GlcNAc(b1-2)Man(a1-6)]GalNAc
In short: as §1

[41] = target: Neu5Ac(a2-6)Gal(b1-4)GlcNAc(b1-3)Gal(b1-4)GlcNAc(b1-3)Gal(b1-4)GlcNAc
In short: as §1

[42] = target: Neu5Ac(a2-6)Gal(b1-4)GlcNAc(b1-3)Gal(b1-4)GlcNAc(b1-3)Gal(b1-4)GlcNAc(b1-2)Man(a1-3)[Neu5Ac(a2-6)Gal(b1-4)GlcNAc(b1-3)Gal(b1-4)GlcNAc(b1-3)Gal(b1-4)GlcNAc(b1-2)Man(a1-6)]GalNAc
In short: as §1

B1: FimD (Bordetella pertussis) (protein)
chain: MPARVISFCGAALAVWAGLAVQPAMAVDPPVDCGRALGLHFWSSASLISDQTPDGTLIGKPVVGRSLLSKSCKVPDDIKEDLSDNHDGEPVDIVLELGSNYKIRPQSYGHPGIVVDLPFGSTEETGIAIYIDFGSSPMQKVGERQWLYPQKGEVLFDVLTINGDNAEVRYQAIKVGPLKRPRKLVLSQFPNLFTYKWVFMRGTSQERVLAQGTIDTDVATSTIDLKTCRYTSQTVSLPIIQRSALTGVGTTLGMTDFQMPFWCYGWPKVSVYMSATKTQTGVDGVALPATGQAAGMASGVGVQLINGKTQQPVKLGLQGKIALPEAQQTESATFSLPMKAQYYQTSTSTSAGKLSVTYAVTLNYD
[1]
  glycan array binding signal (z-score): -0.179
[2]
  glycan array binding signal (z-score): -0.238
[3]
  glycan array binding signal (z-score): -0.031
[4]
  glycan array binding signal (z-score): -0.161
[5]
  glycan array binding signal (z-score): -0.289
[6]
  glycan array binding signal (z-score): -0.477
[7]
  glycan array binding signal (z-score): 0.96
[8]
  glycan array binding signal (z-score): -0.135
[9]
  glycan array binding signal (z-score): 1.03
[10]
  glycan array binding signal (z-score): 0.701
[11]
  glycan array binding signal (z-score): 0.086
[12]
  glycan array binding signal (z-score): 0.009
[13]
  glycan array binding signal (z-score): -0.282
[14]
  glycan array binding signal (z-score): -0.632
Neu5Ac(a2-3)GalNAc
  glycan array binding signal (z-score): -0.06
[15]
  glycan array binding signal (z-score): -0.354
[16]
  glycan array binding signal (z-score): -0.52
[17]
  glycan array binding signal (z-score): -0.037
[18]
  glycan array binding signal (z-score): 0.943
[19]
  glycan array binding signal (z-score): -0.154
Neu5Ac(a2-6)Gal
  glycan array binding signal (z-score): 0.576
[20]
  glycan array binding signal (z-score): -0.473
Neu5Ac(a2-6)Gal(b1-4)Glc
  glycan array binding signal (z-score): 0.442
[21]
  glycan array binding signal (z-score): -0.256
[22]
  glycan array binding signal (z-score): -0.173
[23]
  glycan array binding signal (z-score): -0.443
[24]
  glycan array binding signal (z-score): -0.483
[25]
  glycan array binding signal (z-score): -0.36
[26]
  glycan array binding signal (z-score): -0.424
[27]
  glycan array binding signal (z-score): -0.383
[28]
  glycan array binding signal (z-score): -0.023
[29]
  glycan array binding signal (z-score): 0.115
[30]
  glycan array binding signal (z-score): -0.073
[31]
  glycan array binding signal (z-score): -0.14
[32]
  glycan array binding signal (z-score): -0.133
[33]
  glycan array binding signal (z-score): -0.065
[34]
  glycan array binding signal (z-score): -0.519
[35]
  glycan array binding signal (z-score): 0.238
[36]
  glycan array binding signal (z-score): 0.042
[37]
  glycan array binding signal (z-score): -0.206
[38]
  glycan array binding signal (z-score): -0.347
[39]
  glycan array binding signal (z-score): -0.153
[40]
  glycan array binding signal (z-score): 0.531
[41]
  glycan array binding signal (z-score): -0.146
[42]
  glycan array binding signal (z-score): 1.34
